Measured values taken from the supplement of paper PMC8728848.
The list shows a part of the results.

Tests used:
Assay in all cases: glycan array binding signal (z-score within array); higher = stronger binding
Conditions in all cases: glycan notation: IUPAC condensed, linker removed
Fuc(a1-2)Gal = molecular target: Fuc(a1-2)Gal
Method in brief: (§1)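 Glycan array binding is given as a within-array Z-score, which can be read as non-binding when negative. The arrays, 3228 of them, came from the Consortium for Functional Glycomics database and were retained only where the protein sequence was available. Z-scores were averaged across arrays of the same protein sequence at different concentrations or buffers and across linkers.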

Fuc(a1-2)Gal(b1-3)GalNAc = molecular target: Fuc(a1-2)Gal(b1-3)GalNAc
Method in brief: as §1

[1] = molecular target: Fuc(a1-2)Gal(b1-3)GalNAc(a1-3)[Fuc(a1-2)]Gal(b1-4)Glc
Method in brief: as §1

[2] = molecular target: Fuc(a1-2)Gal(b1-3)GalNAc(a1-3)[Fuc(a1-2)]Gal(b1-4)GlcNAc
Method in brief: as §1

[3] = molecular target: Fuc(a1-2)Gal(b1-3)GalNAc(b1-3)Gal
Method in brief: as §1

[4] = molecular target: Fuc(a1-2)Gal(b1-3)GalNAc(b1-3)Gal(a1-4)Gal(b1-4)Glc
Method in brief: as §1

[5] = molecular target: Fuc(a1-2)Gal(b1-3)GalNAc(b1-4)[Neu5Ac(a2-3)]Gal(b1-4)Glc
Method in brief: as §1

Fuc(a1-2)Gal(b1-3)GlcNAc = molecular target: Fuc(a1-2)Gal(b1-3)GlcNAc
Method in brief: as §1

[6] = molecular target: Fuc(a1-2)Gal(b1-3)GlcNAc(b1-2)Man(a1-3)[Fuc(a1-2)Gal(b1-3)GlcNAc(b1-2)Man(a1-6)]Man(b1-4)GlcNAc(b1-4)GlcNAc
Method in brief: as §1

[7] = molecular target: Fuc(a1-2)Gal(b1-3)GlcNAc(b1-2)Man(a1-3)[Fuc(a1-2)Gal(b1-3)GlcNAc(b1-2)Man(a1-6)]Man(b1-4)GlcNAc(b1-4)[Fuc(a1-6)]GlcNAc
Method in brief: as §1

[8] = molecular target: Fuc(a1-2)Gal(b1-3)GlcNAc(b1-3)Gal(b1-4)Glc
Method in brief: as §1

[9] = molecular target: Fuc(a1-2)Gal(b1-3)GlcNAc(b1-3)GalNAc
Method in brief: as §1

[10] = molecular target: Fuc(a1-2)Gal(b1-3)GlcNAc(b1-3)[Fuc(a1-2)Gal(b1-3)GlcNAc(b1-6)]GalNAc
Method in brief: as §1

[11] = molecular target: Fuc(a1-2)Gal(b1-3)GlcNAc(b1-3)[Gal(b1-4)GlcNAc(b1-6)]Gal(b1-4)Glc
Method in brief: as §1

[12] = molecular target: Fuc(a1-2)Gal(b1-3)GlcNAc(b1-3)[Gal(b1-4)[Fuc(a1-3)]GlcNAc(b1-6)]Gal(b1-4)Glc
Method in brief: as §1

[13] = molecular target: Fuc(a1-2)Gal(b1-3)GlcNAc(b1-3)[Neu5Ac(a2-6)Gal(b1-4)GlcNAc(b1-6)]Gal(b1-4)Glc
Method in brief: as §1

[14] = molecular target: Fuc(a1-2)Gal(b1-3)GlcNAc6S
Method in brief: as §1

[15] = molecular target: Fuc(a1-2)Gal(b1-3)[Fuc(a1-4)]GlcNAc
Method in brief: as §1

[16] = molecular target: Fuc(a1-2)Gal(b1-3)[Fuc(a1-4)]GlcNAc(b1-2)Man(a1-3)[Fuc(a1-2)Gal(b1-3)[Fuc(a1-4)]GlcNAc(b1-2)Man(a1-3)]Man(b1-4)GlcNAc(b1-4)GlcNAc
Method in brief: as §1

[17] = molecular target: Fuc(a1-2)Gal(b1-3)[Fuc(a1-4)]GlcNAc(b1-2)Man(a1-3)[Fuc(a1-2)Gal(b1-3)[Fuc(a1-4)]GlcNAc(b1-2)Man(a1-6)]Man(b1-4)GlcNAc(b1-4)GlcNAc
Method in brief: as §1

[18] = molecular target: Fuc(a1-2)Gal(b1-3)[Fuc(a1-4)]GlcNAc(b1-2)Man(a1-3)[Fuc(a1-2)Gal(b1-3)[Fuc(a1-4)]GlcNAc(b1-2)Man(a1-6)]Man(b1-4)GlcNAc(b1-4)[Fuc(a1-6)]GlcNAc(b1-4)[Fuc(a1-6)]GlcNAc
Method in brief: as §1

[19] = molecular target: Fuc(a1-2)Gal(b1-3)[Fuc(a1-4)]GlcNAc(b1-3)[Fuc(a1-3)[Gal(b1-4)]GlcNAc(b1-6)]Gal(b1-4)Glc
Method in brief: as §1

[20] = molecular target: Fuc(a1-2)Gal(b1-3)[Fuc(a1-4)]GlcNAc(b1-3)[Gal(b1-4)GlcNAc(b1-6)]Gal(b1-4)Glc
Method in brief: as §1

[21] = molecular target: Fuc(a1-2)Gal(b1-4)Fuc(a1-3)]GlcNAc(b1-2)Man(a1-3)[Fuc(a1-2)Gal(b1-4)[Fuc(a1-3)]GlcNAc(b1-2)Man(a1-6)]Man(b1-4)GlcNAc(b1-4)GlcNAc
Method in brief: as §1

Fuc(a1-2)Gal(b1-4)Glc = molecular target: Fuc(a1-2)Gal(b1-4)Glc
Method in brief: as §1

Fuc(a1-2)Gal(b1-4)Glc6S = molecular target: Fuc(a1-2)Gal(b1-4)Glc6S
Method in brief: as §1

Fuc(a1-2)Gal(b1-4)GlcNAc = molecular target: Fuc(a1-2)Gal(b1-4)GlcNAc
Method in brief: as §1

[22] = molecular target: Fuc(a1-2)Gal(b1-4)GlcNAc(b1-2)Man
Method in brief: as §1

[23] = molecular target: Fuc(a1-2)Gal(b1-4)GlcNAc(b1-2)Man(a1-3)[Fuc(a1-2)Gal(b1-4)GlcNAc(b1-2)Man(a1-6)]Man(b1-4)GlcNAc(b1-4)GlcNAc
Method in brief: as §1

[24] = molecular target: Fuc(a1-2)Gal(b1-4)GlcNAc(b1-2)Man(a1-3)[Fuc(a1-2)Gal(b1-4)GlcNAc(b1-2)Man(a1-6)]Man(b1-4)GlcNAc(b1-4)[Fuc(a1-6)]GlcNAc
Method in brief: as §1

B1: LSECtin (Homo sapiens), Q6UXB4 (protein)
chain: MDTTRYSKWGGSSEEVPGGPWGRWVHWSRRPLFLALAVLVTTVLWAVILSILLSKASTERAALLDGHDLLRTNASKQTAALGALKEEVGDCHSCCSGTQAQLQTTRAELGEAQAKLMEQESALRELRERVTQGLAEAGRGREDVRTELFRALEAVRLQNNSCEPCPTSWLSFEGSCYFFSVPKTTWAAAQDHCADASAHLVIVGGLDEQGFLTRNTRGRGYWLGLRAVRHLGKVQGYQWVDGVSLSFSHWNQGEPNDAWGRENCVMMLHTGLWNDAPCDSEKDGWICEKRHNC
B1 was tested. Which “glycan array binding signal (z-score)” value (Fuc(a1-2)Gal) did it give?
Its value is -0.224.

What about the “glycan array binding signal (z-score)” value (Fuc(a1-2)Gal(b1-3)GalNAc) of the same binder?
The value was -0.159.

What about the “glycan array binding signal (z-score)” value [1] of the same binder?
The value was -0.135.

And the “glycan array binding signal (z-score)” value [2]?
Its value is -0.136.

What about the “glycan array binding signal (z-score)” value [3] of the same binder?
Its value is 0.07.

And the “glycan array binding signal (z-score)” value [4]?
The value was -0.184.

What about the “glycan array binding signal (z-score)” value [5] of the same binder?
Its value is 0.083.

And the “glycan array binding signal (z-score)” value (Fuc(a1-2)Gal(b1-3)GlcNAc)?
The value was -0.21.

And the “glycan array binding signal (z-score)” value [6]?
The value was 0.42.

And the “glycan array binding signal (z-score)” value [7]?
The value was -0.124.

What about the “glycan array binding signal (z-score)” value [8] of the same binder?
Its value is -0.196.

What about the “glycan array binding signal (z-score)” value [9] of the same binder?
The value was -0.139.

What about the “glycan array binding signal (z-score)” value [10] of the same binder?
Its value is -0.131.

And the “glycan array binding signal (z-score)” value [11]?
Its value is -0.14.

What about the “glycan array binding signal (z-score)” value [12] of the same binder?
Its value is -0.276.

And the “glycan array binding signal (z-score)” value [13]?
The value was -0.13.

And the “glycan array binding signal (z-score)” value [14]?
The value was -0.125.

And the “glycan array binding signal (z-score)” value [15]?
The value was -0.192.

What about the “glycan array binding signal (z-score)” value [16] of the same binder?
The value was -0.107.

And the “glycan array binding signal (z-score)” value [17]?
The value was 2.05.

And the “glycan array binding signal (z-score)” value [18]?
Its value is -0.127.

And the “glycan array binding signal (z-score)” value [19]?
The value was -0.119.

What about the “glycan array binding signal (z-score)” value [20] of the same binder?
The value was -0.131.

And the “glycan array binding signal (z-score)” value [21]?
The value was -0.123.

And the “glycan array binding signal (z-score)” value (Fuc(a1-2)Gal(b1-4)Glc)?
The value was -0.195.

And the “glycan array binding signal (z-score)” value (Fuc(a1-2)Gal(b1-4)Glc6S)?
The value was 0.134.

What about the “glycan array binding signal (z-score)” value (Fuc(a1-2)Gal(b1-4)GlcNAc) of the same binder?
The value was -0.092.

What about the “glycan array binding signal (z-score)” value [22] of the same binder?
Its value is -0.135.

What about the “glycan array binding signal (z-score)” value [23] of the same binder?
Its value is -0.098.

And the “glycan array binding signal (z-score)” value [24]?
Its value is -0.139.
